Counter-ions that a name gives are not always drawn. The list shows a part of the results. Repeats are few or missing, and single values can be far off.
Key:
Assay in all cases: cell viability relative to vehicle (% of vehicle); basal-like triple-negative breast cancer lines; higher = less cytotoxic
Conditions in all cases: 10 µM; 72 h
HCC-1143 = tested on: HCC-1143
HCC-1187 = tested on: HCC-1187
MDA-468 = tested on: MDA-468
SUM-149 = tested on: SUM-149
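Further: stably firefly luciferase-GFP labeled cells in 96-well plates, viability read as luciferase photon flux after d-luciferin addition, treated wells normalized to vehicle wells, single-dose high-throughput screen.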

Row | SMILES | cell viability (HCC-1143) | cell viability (HCC-1187) | cell viability (MDA-468) | cell viability (SUM-149)
1 | Cl.Clc1ccc2nsnc2c1NC1=NCCN1 [Tizanidine HCl] | 81.1 | 94.5 | 98.9 | 106
2 | O=C(CS(=O)Cc1ccco1)NCC=CCOc1cc(CN2CCCCC2)ccn1 (configuration not stated) [Lafutidine] | 90.5 | 94.7 | 102 | 133
3 | Cl.Nc1c2c(nc3ccccc13)CCCC2 [Tacrine hydrochloride] | 58.3 | 76.1 | 109 | 100
4 | C#CC1(OC(C)=O)CCC2C3CCC4=CC(OC(C)=O)CCC4C3CCC21C (configuration not stated) [Ethynodiol diacetate] | 73.7 | 94.8 | 91.9 | 90.1
5 | O=C(O)Cc1ccccc1Nc1c(Cl)cccc1Cl [Diclofenac] | 107 | 100 | 109 | 115
6 | CN(C)NN=C1N=CN=C1C(N)=O [Dacarbazine] | 88.6 | 91.7 | 87.2 | 144
7 | NCC1OC(OC2C(N)CC(N)C(OC3OC(CO)C(O)C(N)C3O)C2O)C(O)C(O)C1O.O=S(=O)(O)O (configuration not stated) [Kanamycin Sulfate] | 92.8 | 102 | 86.8 | 79
8 | CC(C(=O)O)c1ccc(C(=O)c2cccs2)cc1 (configuration not stated) [Suprofen] | 91.4 | 91.1 | 99.6 | 92.9
9 | COc1cc2nccc(Oc3ccc(NC(=O)Nc4cc(C)on4)c(Cl)c3)c2cc1OC [Tivozanib (AV-951)] | 87.6 | 76.6 | 90.7 | 111
10 | Cc1cc(C)nc(NS(=O)(=O)c2ccc(N)cc2)n1 [Sulfamethazine] | 79.1 | 86.4 | 103 | 105
11 | CCCC(CCC)C(=O)[O-].[Na+] [Valproic acid sodium salt (Sodium valproate)] | 84 | 90 | 91.5 | 112
12 | Cl.O=C1Cc2cc(CCN3CCN(c4nsc5ccccc45)CC3)c(Cl)cc2N1 [Ziprasidone HCl] | 103 | 142 | 96.8 | 131
13 | CCC(C)C(=O)OC1CC(C)C=C2C=CC(C)C(CCC3CC(O)CC(=O)O3)C21 (configuration not stated) [Lovastatin] | 109 | 86.6 | 89.2 | 101
14 | O=C(CCCCCCNC(=O)c1cnc(N(c2ccccc2)c2ccccc2)nc1)NO [Rocilinostat (ACY-1215)] | 67.2 | 76.1 | 95.2 | 98
15 | CN(Cc1ccc(C(C)(C)C)cc1)Cc1cccc2ccccc12.Cl [Butenafine HCl] | 72.3 | 93.6 | 114 | 108
16 | Cc1c(C(=O)Nc2ccc(N3CC(C)OC(C)C3)nc2)cccc1-c1ccc(OC(F)(F)F)cc1 (configuration not stated) [LDE225 (NVP-LDE225,Erismodegib)] | 56.8 | 58.9 | 64.2 | 87
17 | CC1CNCCCN1S(=O)(=O)c1cccc2cncc(F)c12.Cl.O.O (configuration not stated) | 74.7 | 79.5 | 90.9 | 66.2
18 | CC12CCC3=C4CCC(=O)C=C4CCC3C1CCC2(O)CC#N (configuration not stated) [Dienogest] | 75.6 | 107 | 99.1 | 112
19 | CCCC(=O)Nc1ccc(OCC(O)CNC(C)C)c(C(C)=O)c1.Cl (configuration not stated) [Acebutolol HCl] | 97.8 | 112 | 102 | 92.4
20 | COc1ccc2cc(CCC(C)=O)ccc2c1 [Nabumetone] | 181 | 141 | 188 | 184
21 | CCn1cc(C(=O)O)c(=O)c2cnc(N3CCCC3)nc21 [Piromidic Acid] | 70.4 | 81.1 | 99.3 | 95.3
22 | Cl.NC(N)=NC(=O)c1nc(Cl)c(N)nc1N.O.O [Amiloride HCl dihydrate] | 66 | 71.2 | 97.4 | 128
23 | O=C(CCCN1CC=C(n2c(=O)[nH]c3ccccc32)CC1)c1ccc(F)cc1 [Droperidol] | 72.2 | 93 | 106 | 108
24 | CC(C)(Oc1ccc(CCNC(=O)c2ccc(Cl)cc2)cc1)C(=O)O [Bezafibrate] | 99.2 | 124 | 105 | 99.7
25 | Nc1nc(=O)c2c([nH]1)NCC(CNc1ccc(C(=O)NC(CCC(=O)[O-])C(=O)[O-])cc1)N2C=O.O.O.O.O.O.[Ca+2] (configuration not stated) [Leucovorin Calcium] | 75.1 | 81.8 | 78.8 | 83.5
26 | COc1cc(C2c3cc4c(cc3C(OC3OC5COC(c6cccs6)OC5C(O)C3O)C3COC(=O)C23)OCO4)cc(OC)c1O (configuration not stated) [Teniposide] | 86.8 | 83.9 | 107 | 86.7
27 | COc1cc2ncnc(Nc3ccc(F)c(Cl)c3)c2cc1OCCCN1CCOCC1 [Gefitinib (ZD1839)] | 87.8 | 71.9 | 77.8 | 77.3

Row | SMILES | cell viability (HCC-1143) | cell viability (HCC-1187) | cell viability (MDA-468) | cell viability (SUM-149)
28 | COC(=O)C=CC(=O)OC [Dimethyl Fumarate] | 105 | 92.3 | 119 | 120
29 | CN(C)CCCN1c2ccccc2Sc2ccc(Cl)cc21.Cl [Chlorpromazine HCl] | 92.5 | 119 | 111 | 88
30 | NS(=O)(=O)NCC/N=C1\NON\C1=C(\N=O)Nc1ccc(F)c(Br)c1 | 126 | 105 | 127 | 125
31 | CS(=O)(=O)c1ccc(C(O)C(CF)NC(=O)C(Cl)Cl)cc1 (configuration not stated) [Florfenicol] | 77 | 92.4 | 108 | 115
32 | CCC(C(C)O)n1ncn(-c2ccc(N3CCN(c4ccc(OCC5COC(Cn6cncn6)(c6ccc(F)cc6F)C5)cc4)CC3)cc2)c1=O (configuration not stated) [Posaconazole] | 89 | 84.4 | 71.9 | 102
33 | COCCc1ccc(OCC(O)CNC(C)C)cc1.COCCc1ccc(OCC(O)CNC(C)C)cc1.O=C(O)C(O)C(O)C(=O)O (configuration not stated) [Metoprolol Tartrate] | 79.3 | 97.2 | 93.4 | 95.6
34 | NCC1OC(OC2C(CO)OC(OC3C(O)C(N)CC(N)C3OC3OC(CN)C(O)C(O)C3N)C2O)C(N)C(O)C1O.O=S(=O)(O)O (configuration not stated) [Neomycin sulfate] | 69.8 | 75.3 | 60.9 | 71.8
35 | COc1ccc2cccc(CCNC(C)=O)c2c1 [Agomelatine] | 73.4 | 90.5 | 115 | 98.5
36 | NC(CC(=O)N1CCn2c(nnc2C(F)(F)F)C1)Cc1cc(F)c(F)cc1F.O.O=P(=O)OO.[HH] (configuration not stated) [Sitagliptin phosphate monohydrate] | 101 | 105 | 96.7 | 123
37 | Cc1cn(-c2cc(/N=C(\O)c3ccc(C)c(Nc4nccc(-c5cnccn5)n4)c3)cc(C(F)(F)F)c2)cn1 [Radotinib(IY-5511)] | 77.7 | 82.7 | 102 | 55.8
38 | Clc1ccc2nsnc2c1NC1=NCCN1 [Tizanidine] | 80.6 | 77.3 | 121 | 128
39 | CSc1ccc2c(c1)N(CCC1CCCCN1C)c1ccccc1S2.Cl (configuration not stated) [Thioridazine HCl] | 89.1 | 102 | 105 | 68.7
40 | Nc1nc(=O)n(C2CSC(CO)O2)cc1F (configuration not stated) [Emtricitabine] | 81.4 | 85.6 | 97.6 | 98.3
41 | COc1cc(C2Oc3cc(C4Oc5cc(O)cc(O)c5C(=O)C4O)ccc3OC2CO)ccc1O (configuration not stated) [Silymarin] | 82.9 | 82.7 | 113 | 106
42 | CCOc1cc2ncc(C#N)c(Nc3ccc(F)c(Cl)c3)c2cc1NC(=O)C=CCN(C)C [Pelitinib (EKB-569)] | 101 | 69.1 | 68.5 | 57.5
43 | CC(C)C(N)C(=O)OCC(CO)OCn1cnc2c(=O)nc(N)[nH]c21.Cl (configuration not stated) [Valganciclovir HCl] | 68 | 88.4 | 111 | 115
44 | CN1CCN2c3ncccc3Cc3ccccc3C2C1 (configuration not stated) [Mirtazapine] | 93.4 | 96.6 | 123 | 111
45 | CCCCCCOC(=O)N=C(N)c1ccc(NCc2nc3cc(C(=O)N(CCC(=O)OCC)c4ccccn4)ccc3n2C)cc1 | 78.5 | 109 | 99.4 | 87.9
46 | CCCNC1CCc2nc(N)sc2C1 (configuration not stated) [Pramipexole] | 91.6 | 112 | 108 | 102
47 | COc1c2occc2cc2ccc(=O)oc12 [8-Methoxypsoralen] | 78.7 | 83.5 | 124 | 106
48 | Nc1nnc(-c2cccc(Cl)c2Cl)c(N)n1 [Lamotrigine] | 71.7 | 104 | 103 | 113
49 | CN(C)CCC=C1c2ccccc2COc2ccc(CC(=O)O)cc21.Cl [Olopatadine HCl] | 89.9 | 94 | 99 | 123
50 | O=C1C(=O)c2ccccc2C(O)=C1C1CCC(c2ccc(Cl)cc2)CC1 (configuration not stated) [Atovaquone] | 80 | 86.7 | 90.3 | 88.2
51 | CO/N=C(\C(=O)N[C@@H]1C(=O)N2C(C(=O)[O-])=C(COC(C)=O)CS[C@H]12)c1csc(N)n1.[Na+] [Cefotaxime (sodium salt)] | 76.7 | 90.7 | 103 | 78.4
52 | CN1CCN(c2nc(C3=C(c4c[nH]c5ccccc45)C(=O)NC3=O)c3ccccc3n2)CC1 [Sotrastaurin (AEB071)] | 110 | 87.6 | 112 | 107
53 | CCn1cc(C(=O)O)c(=O)c2ccc(C)nc21 [Nalidixic acid] | 82 | 88.8 | 91.1 | 99

From the supplement of paper PMC8512760
